# Results as given in paper PMC12040169 (PLOS Biology, 2025).
# The list shows a part of the results.
# System: T1, C. trachomatis L2/434/Bu expressing GFP (CTL2-GFP)
# T1 construct: L2/434/Bu GFP intracellular growth in HeLa cells
# Parameters: species or system HeLa; C. trachomatis total inclusion area by high-content imaging, normalised to DMSO
# Conditions: total inclusion area; 28.5 h, 10 µM; inhibitor
# In short: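 After bulk GFP and resorufin fluorescence reads, cells were fixed, stained with Hoechst and imaged by high-content microscopy. Inclusion area and number (GFP) stood in for chlamydial growth, nuclei count (Hoechst) for host cell viability. MICs were derived as for the bulk readout.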
row,Structure (SMILES),% of control remaining
1,COCC(=O)N1c2ccccc2CC[C@@H]1C(=O)OC [CBK285472],74.8451
2,O=C1CC(c2ccccc2)CC(=O)N1c1ccc(N2CCOCC2)cc1 [CBK291191],103.578
3,O=S(=O)([O-])c1cc(S(=O)(=O)O)ccc1Nc1cc2c(nc3ccccc3[n+]2-c2ccccc2)c2ccccc12 [CBK260997N],53.3668
4,CN1C(=O)COc2ccccc2CCCC[C@@H]2[C@H]1CCCN2C(=O)c1cc(=O)[nH]c(=O)[nH]1 [CBK292110],92.8844
5,COc1cc(CN2CCC3(CC2)CN(CCO)c2ccccc23)cc(OC)c1OC [CBK131524],78.6151
6,Clc1cncc(-c2cc3ccccc3[nH]2)n1 [CBK154865],90.732
7,C#CCNC(=O)CC[C@H]1CNC(=O)[C@@H]2[C@@H](CCN2Cc2ccccc2)N1C [CBK289034],117.181
8,Nc1nc(SCc2nnc(S)n2-c2ccccc2)nc2sc3c(c12)CCC3 [CBK301216K],68.7979
9,CCN(CC)Cc1c(O)ccc2cc(-c3nc4ccccc4[nH]3)c(=O)oc12 [CBK263824],105.225
10,O=C(C[n+]1ccc(CCSCc2ccc3c4c(cccc24)CC3)cc1)c1ccc2c3c(cccc13)CC2 [CBK260881B],59.2239
11,O=C(NCC1COc2ccccc2O1)N1CCCC(CO)C1 (stereo not shown) [CBK156030],99.6252
12,CC(C)(C)c1cc(C(=O)O)c(CN2CCOCC2)o1 [CBK264052],98.1342
13,CC(Cc1ccccn1)NC(=O)C1CC2C=CC1C21CC1 (stereo not shown) [CBK282070],80.2418
14,Cc1cc(NC(=O)C(C)C)nc2c1c(=O)oc1ccccc12 [CBK287441],106.483
15,Nc1nc(-n2cnnc2)nn1-c1ccccc1 [CBK265015],93.8483
16,O=C(NC1(c2ccc(F)cc2)CCCC1)c1cnccn1 [CBK283595],100.852
17,COc1ccc2nc(NC(=N)NC(=S)Nc3ccc(Cl)cc3)nc(C)c2c1 [CBK266677],72.3185
18,O=c1[nH]nc(SCCOc2c(Cl)c(Cl)c(Cl)c(Cl)c2Cl)c(=O)[nH]1 [CBK262794],110.206
19,Cn1cc(C(=O)N2CCC(c3ccccc3)C2)c2ccccc2c1=O (stereo not shown) [CBK281921],76.174
20,NC(=O)COc1ccc(C2Nc3ccccc3C(=O)N2C2CC2)cc1 (stereo not shown) [CBK295198],100.135
21,COc1ccc(S(=O)(=O)Nc2cc(N3CCCC3)c3occc3c2)cc1OC [CBK061975],64.9939
22,Cn1cc2c(n1)[C@H]1CN(C(=O)c3cc(C(F)(F)F)nn3C)C[C@H]1C2 [CBK283400],120.314
